According to publication PMC4336329 (PLoS ONE, 2015):
In all, about 310,000 compounds went through this assay and about 14,000 (4.5%) showed an effect of 50% or more. The effect is printed as a negative number. The list shows a part of the results.

Target: human ether-à-go-go-related gene (hERG) potassium channel (human, UniProt Q12809)
Assay: primary screen, population patch clamp on CHO cells stably expressing hERG
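Also: peak tail current of the secondary pulse compared with the same well before compound.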

human ether-à-go-go-related gene (hERG) potassium channel, sequence (Q12809 whole entry, looked up): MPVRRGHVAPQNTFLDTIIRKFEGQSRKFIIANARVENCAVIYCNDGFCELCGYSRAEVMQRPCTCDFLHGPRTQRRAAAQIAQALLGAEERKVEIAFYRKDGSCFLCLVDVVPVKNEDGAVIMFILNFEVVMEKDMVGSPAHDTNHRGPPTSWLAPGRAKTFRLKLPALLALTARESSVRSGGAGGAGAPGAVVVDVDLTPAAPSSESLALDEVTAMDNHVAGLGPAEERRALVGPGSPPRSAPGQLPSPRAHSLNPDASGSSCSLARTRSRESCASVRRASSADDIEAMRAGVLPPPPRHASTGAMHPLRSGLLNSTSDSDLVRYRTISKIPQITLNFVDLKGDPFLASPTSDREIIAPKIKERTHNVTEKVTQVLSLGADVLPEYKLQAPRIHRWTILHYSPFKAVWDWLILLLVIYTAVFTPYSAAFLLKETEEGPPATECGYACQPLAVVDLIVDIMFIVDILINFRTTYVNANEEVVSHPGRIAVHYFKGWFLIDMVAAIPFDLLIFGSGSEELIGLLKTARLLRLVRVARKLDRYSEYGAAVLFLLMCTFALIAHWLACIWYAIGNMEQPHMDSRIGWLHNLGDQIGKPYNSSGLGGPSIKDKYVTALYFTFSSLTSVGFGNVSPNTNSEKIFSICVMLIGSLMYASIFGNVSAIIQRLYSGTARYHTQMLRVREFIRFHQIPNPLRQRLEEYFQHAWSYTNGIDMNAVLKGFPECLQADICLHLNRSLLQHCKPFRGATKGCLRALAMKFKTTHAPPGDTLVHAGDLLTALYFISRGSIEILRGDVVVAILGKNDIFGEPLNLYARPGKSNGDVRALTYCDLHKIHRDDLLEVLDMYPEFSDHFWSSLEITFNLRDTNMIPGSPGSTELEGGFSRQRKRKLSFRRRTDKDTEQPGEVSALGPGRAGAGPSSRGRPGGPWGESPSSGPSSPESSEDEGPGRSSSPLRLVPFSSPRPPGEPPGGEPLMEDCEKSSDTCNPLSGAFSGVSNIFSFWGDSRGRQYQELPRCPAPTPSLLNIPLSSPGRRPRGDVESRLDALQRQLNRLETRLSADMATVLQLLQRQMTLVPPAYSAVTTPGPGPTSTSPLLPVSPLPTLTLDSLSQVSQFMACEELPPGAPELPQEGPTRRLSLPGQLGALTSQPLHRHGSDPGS

SMILES	hERG current change (%, negative = inhibition) at 10uM
O=C(NCCN1CCCC1)c1ccc2c(c1)N(Cc1ccc(F)cc1)C(=O)c1ccccc1S2=O (stereo not shown)	-7.19%
COCC(=O)NCc1nc2ccccc2n1Cc1ccccc1F	4.68%
COc1ccc(C)cc1NC(=O)CSc1nnc(-c2ccc(C)cc2)o1	10.6%
CC(=O)Nc1ccc(-c2ccc(NC(C)=O)cc2)cc1	8.78%
CCOC(=O)c1cnn(-c2nc(-c3cccc(F)c3)cs2)c1C(F)(F)F	6.51%
CC(=O)c1ccc(S(=O)(=O)N2CCN(C(=O)CSC(=S)N3CCCC3)CC2)cc1	-6.09%
O=C1Cc2ccccc2C(=O)N1CCc1ccccc1	-4.48%
O=C(c1ccccc1-c1nc(-c2ccccc2Cl)no1)N1CCOCC1	-6.07%
COC(=O)C(CCSC)NC(=O)CNS(=O)(=O)c1ccc(F)cc1 (stereo not shown)	12.9%
O=C(CCCn1c(SCc2cc(=O)n3ccccc3n2)nc2ccccc2c1=O)NCC1CCCO1 (stereo not shown)	-1.72%
COc1ccc([N+](=O)[O-])cc1-n1cnnn1	19.2%
CCNC(=O)[C@H]1O[C@@H](n2cnc3c(N)ncnc32)[C@H](O)[C@@H]1O	18.5%
Brc1c(OCCOCCn2cncn2)ccc2ccccc12	-12.6%
c1ccc(-n2nnnc2SCc2cccc3nsnc23)cc1	1.56%
COc1ccc(/C=C/C(=O)N2CCC(c3ccccc3)C2)cc1 (stereo not shown)	-47.4%
CCn1ccnc1CN(C)Cc1cn(-c2cccc(C)c2)nc1-c1cccc(F)c1	-18.3%
O=C(COc1ccc2ccccc2c1)N1CCN(C(=O)c2cccnc2)CC1	-25%
O=C(COC(=O)c1cc(Cl)ccc1Cl)NC1CCCC1	-0.39%
COC(=O)C1SCC2C(=O)N(Cc3ccccc3)CC(=O)N21 (stereo not shown)	26.1%
N#C/C(=C\c1ccc[nH]1)C(=O)N1CCCCC1	13%
COc1ccc(/C=N/NC(=O)CN(c2ccc(OC)cc2)S(=O)(=O)c2ccccc2)cc1	-7.15%
CC(O)CNc1nc2ccccc2n1-c1ncnc2sc3c(c12)CCC3 (stereo not shown)	-55.5%

SMILES	hERG current change (%, negative = inhibition) at 10uM
O=C1NC(=NCc2ccccc2)S/C1=C/c1ccc(O)cc1	-11.4%
CC1CC(C)CN(S(=O)(=O)c2ccc(C(=O)Nc3sccc3C(N)=O)cc2)C1 (stereo not shown)	14.8%
Cc1ccc(CCNC(=O)CN2C(=O)COc3ccccc32)cc1	-11.4%
COc1ccc(CCNC(=O)CN2CCC(C)CC2)cc1OC.O=C(O)C(=O)O	10.7%
Cc1ccccc1OCC(=O)Nc1sc2c(c1C#N)CC(C)(C)NC2(C)C	10.1%
CCOC(=O)C1CCN(C(=O)c2sc3nc(-c4ccccc4)cn3c2C)CC1	-41%
Oc1ccc(/C=N/N2CCN(C3c4ccccc4-c4ccccc43)CC2)cc1	9.56%
Cc1nc2ccccc2cc1C(=O)NCc1ccc(F)cc1	-30.6%
O=C(Cn1c(NCCO)nc2ccccc21)N1CCN(Cc2ccccc2)CC1	-9.47%
O=C(Nc1ccc2c(c1)CCC2)c1cccc(S(=O)(=O)N2CCN(c3ccc(F)cc3)CC2)c1	-3.29%
Cl.O=C(Nc1cccc(Cl)c1)NC1CCN(C2CCCCC2)C1 (stereo not shown)	-56.6%
Cc1ccc(-c2nnc(SCC(=O)NCC3CCCO3)n2C)cc1 (stereo not shown)	7.61%
CN(Cc1ccccc1)C(=O)COC(=O)c1ccc(Cl)c(N)c1	0.779%
CCC(CC)C(=O)Nc1c2c(nn1-c1ccc(OC)cc1)CS(=O)(=O)C2	-6.67%
Cc1cc(C(=O)OCC(=O)Nc2cc(S(=O)(=O)N(C)C)ccc2C)c2ccccc2n1	-3.98%
CCOC(=O)C1CCCN(C(=O)COc2ccccc2O)C1 (stereo not shown)	-1.94%
CN(C)S(=O)(=O)c1cccc(C(=O)NCC2CCCO2)c1 (stereo not shown)	-2.18%
COc1ccc(N(CC(=O)N2CCOCC2)S(C)(=O)=O)cc1OC	13.8%
COc1ccccc1N1C(=O)c2cccc3c(C(=O)O)ccc(c23)C1=O	-3.86%
Cc1cccc(NC(=O)CCC2CCN(Cc3nccs3)CC2)c1	-41.5%
CSc1ccc(S(=O)(=O)Nc2ccc(F)cc2)cc1	1.51%
COc1ccc(CNC(=O)c2ccc(NS(=O)(=O)c3ccc4[nH]c(=O)[nH]c4c3)cc2)cc1OC	13.3%

SMILES	hERG current change (%, negative = inhibition) at 10uM
Cc1c(C(=O)Nc2cc(S(=O)(=O)N3CCOCC3)ccc2N2CCN(C)CC2)oc2ccccc12	-10.8%
COc1cccc2sc(Nc3nnc(-c4ccc(F)cc4)o3)nc12	-3.13%
O=C1NC(=O)C(=Cc2cc([N+](=O)[O-])ccc2N2CCCCC2)C(=O)N1	7.84%
O=C(c1cc(=O)[nH]c2ccccc12)N1CCN(c2ccccc2)CC1	2.12%
Cc1cc(Nc2nc3ccccc3nc2Cl)n(-c2ccccc2C)n1	-24.8%
Cl.NS(=O)(=O)c1ccc(CCNCc2cccnc2)cc1	18.4%
CCc1nc(N[C@H](C(=O)O)C(C)C)c2oc3ccccc3c2n1	16.9%
Cn1c(SCC(=O)Nc2ccccc2Cl)nnc1C1CC1	3.21%
Cc1cc(C)c(C)c(S(=O)(=O)N2CCN(C(=O)c3ccncc3)CC2)c1C	-26.9%
CCCC(=O)Nc1nc(-c2ccc(Cl)s2)cs1	8.94%
O=C(/C=C/c1ccc([N+](=O)[O-])cc1)N(c1ccccn1)C1CCCCC1	-29%
COc1ccc(COC(=O)C2CCN(S(=O)(=O)c3ccc(OC)c(OC)c3)CC2)cc1	-14.3%
CC(=O)N/N=C/c1cc2c(cc1[N+](=O)[O-])OCO2	14.2%
CCOC(=O)CCc1c(C)nc2c(c(C)nn2C(C)(C)C)c1C	-2.38%
CCn1ncc([N+](=O)[O-])c1C(=O)NC1CCCCC1	16.2%
CC(C)c1ccc(NC(=O)c2csnn2)cc1	3.7%
CN(C)C(CNc1ncccn1)c1ccccc1 (stereo not shown)	16.5%
CN(Cc1ccco1)S(=O)(=O)c1csc(C(N)=O)c1	6.37%
O=C1c2ccccc2C(=O)N1CCCCN(C(=O)c1cc2ccccc2oc1=O)c1ccc(F)cc1F	1.03%
CCOC(=O)N1CCC(NC(=O)C(Cc2ccccc2)NC(=O)c2ccco2)CC1 (stereo not shown)	-0.741%
Cc1[nH]c(=O)[nH]c(=O)c1S(=O)(=O)Nc1ccc(S(N)(=O)=O)cc1	21.2%
COC(=O)c1ccc(Oc2nc3c(c(=O)n(C)c(=O)n3C)n2CCC(C)C)cc1	3.24%

SMILES	hERG current change (%, negative = inhibition) at 10uM
Cc1cccc(C(=O)NNC(=O)CCn2nnc3ccccc32)c1	12.7%
Oc1c(Cl)cc(Cl)cc1CNn1cnnc1	23.1%
COc1ccc(C(C)(C)C)cc1NC(=O)C1C2C=CC(C2)C1C(=O)O (stereo not shown)	12.5%
Cc1ccc(C(=O)NCC(c2ccco2)N2CCc3ccccc3C2)cc1C (stereo not shown)	-5.02%
Cc1ccc(C#CC[N+](C)(C)CC#Cc2ccccc2)cc1.[Br-]	-75.9%
COc1ccc(-n2c(SC(C)C(=O)N3CCOCC3)nc3ccccc3c2=O)cc1 (stereo not shown)	6.84%
O=C(Nc1sc2c(c1C(=O)O)CCC2)c1cccc(Cl)c1	35.1%
Cl.O=C(NCCNCCO)c1c(O)c2cccc3c2n(c1=O)CCC3	-1.89%
[O-]/[N+](=C\c1ccccc1)c1ccccc1	8.94%
CCCOc1cccc(C2/C(=C(\O)c3ccc4c(c3)OCCO4)C(=O)C(=O)N2CCCn2ccnc2)c1 (stereo not shown)	14.7%
O=C(CC(=O)N/N=C/c1c(F)cccc1Cl)NCc1ccccc1	-10.8%
O=C(Nc1nc2ccccc2[nH]1)c1ccc(S(=O)(=O)N2CCOCC2)cc1	2.85%
O=C(N/N=C/c1cccc([N+](=O)[O-])c1)C1CC1c1ccccc1 (stereo not shown)	-2.96%
CN(CCc1ccccn1)C(=O)CCc1nnc(CCCc2ccccc2)o1	2.54%
Cc1nn(-c2ccccc2)c(C)c1/C=N/NC(=O)c1cc(-c2cccs2)[nH]n1	1.84%
CSc1nc2c(c(=O)n1Cc1ccccc1)SC(C)C2 (stereo not shown)	-21.2%
O=C(N/N=C/c1ccccc1C(F)(F)F)c1ccc(O)cc1	-3.87%
O=c1c2c(ncn2C2CCCC2)n(Cc2ccccc2)c(=O)n1CCOc1ccccc1	-8.64%
CCOC(=O)N1CCC(NS(=O)(=O)c2ccc(C)c(Cl)c2)CC1	-37%
COc1ccc(-c2cc(C(F)F)n3ncc(C(=O)N4CCN(C)CC4)c3n2)cc1	-9.23%
Cc1ccc(C2/C(=C(/O)c3ccc(OC(C)C)cc3)C(=O)C(=O)N2CCN2CCOCC2)cc1 (stereo not shown)	-2%
CN(C)CCN=Cc1c(O)n(C2CCCCCC2)c(=O)[nH]c1=O	7.08%
